{"source": "PubChem BioAssay AID504897", "about": "(Southern Research Specialized Biocontainment Screening …, 2011)", "system": "Mycobacterium tuberculosis H37Rv growth inhibition, 7H9 medium", "experiment": "M. tuberculosis growth inhibition, dose response, H37Rv, 7H9 media, purified and synthesized compounds, set 6 (AID 504897)", "note": "Certain results were filed several times, with different values. The other results are left out here. There may be further records. Values given together are repeated measurements across runs, samples, wells, individuals or studies. Marks in square brackets tell the records apart. A, B and so on number the origins entry by entry."}
{"smiles": "O=C(CSc1nc2ccccc2c(=O)[nH]1)NC1CCCCC1", "values": [{"measurement": "IC90", "result": "372 nM [sample A] and 33 nM [sample B]"}, {"measurement": "IC50", "setting": "measured here: IC50 of Mtb growth inhibition", "result": "141 nM [sample A] and 1 nM [sample B]"}]}
